{
  "source": "PubChem BioAssay AID445",
  "about": "(National Center for Advancing Translational Sciences (NCATS), 2006)",
  "note": "Out of some 110,000 compounds screened, about 40 (0.04%) were called active. The inconclusive results got no clear call from the source; some entries with a clear call stand among them for comparison. The call rests on the fitted dose curve; in most records, active means well fitted curve in the direction sought with a large enough effect in the signal ratio (not every such curve was filed as active); inconclusive means small, poorly fitted or top-dose-only effect, or a change in a side signal; inactive means flat fitted curve, though single readings scatter; the % refers to the signal ratio. Where the call is inconclusive, the potency comes from a doubtful curve fit. Potency means the concentration at half of the fitted maximal effect.",
  "data": [
    {"test": "IkB Signaling;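 on IkBa stabilization activation: 0% = basal untreated cells and 100% = reference inhibitor full response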", "conditions": "ABC-DLBCL IkBa-CBG/CBR dual luciferase ratio (green luciferase fused to IkBa over red control in OCI-Ly3 lymphoma cells), 4 h; IkBa stabilization activation: at 57.1 µM (top of the series), scaled: untreated 0%, proteasome inhibitor 100% unless noted", "in_short": "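In this assay, an IκBα–CBG68 fusion accumulates when IKK-driven degradation is blocked; native CBR normalizes for cell number. OCI-Ly3 cells were treated 4 h with compound and doxycycline, then green and red light read after Chroma-Glo addition.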", "values": [
      {"compound": "CCN(CC)c1ccc(NS(=O)(=O)c2ccc3c(c2)CCCN3C(C)=O)c(C)c1", "IkBa stabilization activation": "inconclusive: 3.36% [signal inhibitor]"},
      {"compound": "COc1ccc(C2c3c(n(C)c4ccccc34)C(=O)N2CC(=O)Nc2ccc(Cl)cc2)cc1", "note": "(stereo not given)", "IkBa stabilization activation": "inconclusive: 2.47% [signal inhibitor]"},
      {"compound": "CCOC(=O)c1c(C)oc2ncnc(NCCc3ccccc3)c12", "IkBa stabilization activation": "inconclusive: -2.53% [signal inhibitor]"},
      {"compound": "Nc1nc2c(c(=O)[nH]1)CN(c1ccc(S(N)(=O)=O)cc1)CN2", "IkBa stabilization activation": "inactive: -0.0884% [at 11.4 µM, scaled: untreated 0%, proteasome inhibitor 100%]"},
      {"compound": "CCCN1CCN(CCNC(=O)Nc2cc(OC)cc(OC)c2)CC1", "IkBa stabilization activation": "inconclusive: 0.985% [signal inhibitor]"},
      {"compound": "Cc1ccc(S(=O)(=O)CCSc2nc(C)cc(C)c2C#N)cc1", "IkBa stabilization activation": "inconclusive: 3.7% [signal inhibitor]"},
      {"compound": "COc1cc(CN(C(=O)COc2ccc(C)c(C)c2)c2ccccn2)cc(OC)c1OC", "IkBa stabilization activation": "inconclusive: 1.63% [signal inhibitor]"},
      {"compound": "CCOc1ccccc1NC(=O)CC1Nc2ccccc2NC1=O", "note": "(stereo not given)", "IkBa stabilization activation": "inconclusive: 2.43% [signal inhibitor]"},
      {"compound": "O=C(CSc1oc(-c2ccco2)nc1S(=O)(=O)c1ccc(Cl)cc1)c1ccc(Cl)cc1", "IkBa stabilization activation": "inconclusive: 0.693% [signal inhibitor]"},
      {"compound": "O=C(CSC1=NCCS1)Nc1ccccc1F", "IkBa stabilization activation": "inconclusive: 8.23% [signal activator]"},
      {"compound": "Cc1ccc(CN2c3ccccc3S(=O)(=O)c3ccccc32)cc1", "IkBa stabilization activation": "inconclusive: 2.22% [signal inhibitor]"},
      {"compound": "CCCCC(CC)Cn1c2nc3ccccc3nc2c2c(=N)oc(C)nc21", "note": "(stereo not given)", "IkBa stabilization activation": "inconclusive: 2.45% [signal inhibitor]"},
      {"compound": "Cc1ccc(NC(=O)Cn2c(-c3ccc4c(c3)OCO4)cn(-c3ccccc3)c2=O)cc1", "IkBa stabilization activation": "inconclusive: 11.2% [signal inhibitor]"},
      {"compound": "COc1ccc(-c2c3c(=O)n(C)c(=O)n(C)c3c3c(-c4ccc(C)cc4)nc4ccccc4n23)cc1", "IkBa stabilization activation": "inactive: 1.21%"},
      {"compound": "Cc1ccc(CSc2nc(=O)c3c(n2C)NC(=O)CC3c2ccc(OC(C)C)cc2)cc1", "note": "(stereo not given)", "IkBa stabilization activation": "inconclusive: 4.7% [signal inhibitor]"},
      {"compound": "CCOC(=O)c1c(NC(=O)Cc2cccs2)sc(C)c1C", "IkBa stabilization activation": "inactive: 3.1%"},
      {"compound": "Cc1ccc(S(=O)(=O)Nc2cc3c(cc2N2CCOCC2)n(C)c(=O)n3C)c(C)c1", "IkBa stabilization activation": "inactive: -2.46%"},
      {"compound": "Cn1c(=O)c2c(nc(CN3CCCCC3)n2Cc2c(F)cccc2Cl)n(C)c1=O", "IkBa stabilization activation": "inactive: -0.16%"},
      {"compound": "Cc1cccc(-c2noc(CCC(=O)NCc3ccccc3)n2)c1", "IkBa stabilization activation": "inactive: -4.58%"},
      {"compound": "CCn1cc(C(=O)NCCc2ccccc2)c(=O)c2cc(S(=O)(=O)N(C)C3CCCCC3)ccc21", "IkBa stabilization activation": "inconclusive: -0.856% [signal inhibitor]"},
      {"compound": "CC(=O)c1[nH]c(C)c(C(=O)NCCc2ccc(C)cc2)c1C", "IkBa stabilization activation": "inconclusive: 1.38% [signal inhibitor]"},
      {"compound": "COc1ccc(-c2noc(-c3ccc(NCc4ccccc4OC)c([N+](=O)[O-])c3)n2)cc1", "IkBa stabilization activation": "inconclusive: 5.43% [signal inhibitor]"},
      {"compound": "CC(=O)Nc1cccc(C(=O)NCc2ccc3c(c2)CCN3C(C)=O)c1", "IkBa stabilization activation": "inconclusive: -1.42% [signal inhibitor]"},
      {"compound": "CCOC(=O)Cc1csc(NC(=O)CS(=O)(=O)Cc2ccccc2)n1", "IkBa stabilization activation": "inconclusive: 10.7% [signal inhibitor]"},
      {"compound": "Cc1nn2c3c(cnc2c1-c1ccccc1)C(=O)CCC3", "IkBa stabilization activation": "inactive: -2.17%"},
      {"compound": "CCOc1ccccc1N(C)C(=O)C1CCCN(c2ncnc3onc(-c4ccc(F)cc4)c23)C1", "note": "(stereo not given)", "IkBa stabilization activation": "inconclusive: 2.96% [signal inhibitor]"},
      {"compound": "Cc1c(CCNC(=O)Cc2ccccc2)sc2nc(-c3ccc(F)cc3)nn12", "IkBa stabilization activation": "inconclusive: 0.927% [signal inhibitor]"},
      {"compound": "O=C(CN1CCN(Cc2ccc(Cl)cc2)C1=O)NCc1ccc(F)cc1", "IkBa stabilization activation": "inconclusive: 3.18% [signal inhibitor]"},
      {"compound": "Cc1ccc2nc3c(cc(C(N)=S)c(=N)n3CCCOC(C)C)c(=O)n2c1", "IkBa stabilization activation": "inactive: 2.09%"},
      {"compound": "CCn1c(SCC(=O)Nc2nc3c(s2)CCCC3)nc2c1c(=O)n(C)c(=O)n2C", "IkBa stabilization activation": "inactive: 0.613%"},
      {"compound": "CCCCN(CC)CCCNC(=O)c1cc2c(-c3ccc(OC)c(OC)c3)nn(C)c2s1", "IkBa stabilization activation": "inconclusive: 1.86% [signal inhibitor]"},
      {"compound": "CCN(CC)C(=O)Oc1ccc2c(=O)c(-c3ccc(OC)cc3)c(C)oc2c1", "IkBa stabilization activation": "inconclusive: -1.76% [signal inhibitor]"},
      {"compound": "O=C(NCc1ccc(F)cc1)c1ccc(NC(=O)N2CC3CCCN3c3ccccc32)cc1", "note": "(stereo not given)", "IkBa stabilization activation": "inconclusive: 3.29% [signal inhibitor]"},
      {"compound": "O=C1c2oc3ccc(F)cc3c(=O)c2C(c2cccc([N+](=O)[O-])c2)N1CCCN1CCOCC1", "note": "(stereo not given)", "IkBa stabilization activation": "inconclusive: -1.31% [signal inhibitor]"},
      {"compound": "CCc1ccc(CN(C(=O)c2cc3ccccc3oc2=O)C2CCS(=O)(=O)C2)cc1", "note": "(stereo not given)", "Potency": "inconclusive: 31.6 µM [signal inhibitor]"}
    ]}
  ]
}
